Assay results from the RNAGym collection of RNA variant scans (doi:10.7554/elife.90254).
Read counts are not given, so values of variants with three or more changes are uncertain.

B1: OR4K15 (parent)
chain: GUUAACGGUCAUAGGCCAUGGAAACUAGGAGCACCAUUUCGCUGCCAGUGAAGAAAUGAACAAAGAAAAUCUGGGCCAGGCAGGCAUCAAAAGAAAUAGUCUUGCGCUCAACCAGAAAGUCUGUAAUCAUUUUAAGGGUA

Variants of: B1
Assay: self-cleavage, relative activity (ratio to wild type); higher = more cleavage; in vitro, sequencing; the parent is a self-cleaving ribozyme

Question: For A23G A47G C112U, which self-cleavage is on record?
Answer: 0.04

Question: For A11G A24G A60G A90G C128G, which self-cleavage is on record?
Answer: 0.24

Question: With A98G U124C G136U as the variant, how does the self-cleavage read?
Answer: 0.35

Question: Which self-cleavage does the source give for U43C A55G A91U A95G A126G here?
Answer: 1.59

Question: With C35A U108C A140G as the variant, how does the self-cleavage read?
Answer: 0.02

Question: Which self-cleavage does the source give for A47U A62G A63G A68G A86G A111G A114G here?
Answer: 0.01

Question: For A30G A52G A78U U100C A110U U133A, which self-cleavage is on record?
Answer: 0.09

Question: Which self-cleavage does the source give for U39C A67G U87A A110G here?
Answer: 0.15

Question: Which self-cleavage does the source give for U19A U38C A47U A59G A94G here?
Answer: 1.31

Question: For A51U A91G U130A, which self-cleavage is on record?
Answer: 1.14

Question: With A52G A82G A90G A111G A135G as the variant, how does the self-cleavage read?
Answer: 0.01

Question: Which self-cleavage does the source give for C17U A22G A64G U132C here?
Answer: 0.53

Question: With A68G A92G U100A as the variant, how does the self-cleavage read?
Answer: 1.18

Question: For U39C A62G U127C, which self-cleavage is on record?
Answer: 0.81

Question: With A22U U49C G104A as the variant, how does the self-cleavage read?
Answer: 0.04

Question: With A62G G79A A116G as the variant, how does the self-cleavage read?
Answer: 0.09

Question: With C76A A94G U103C U130G as the variant, how does the self-cleavage read?
Answer: 0.02

Question: For U37C U57C A60U A114C, which self-cleavage is on record?
Answer: 0.02

Question: Which self-cleavage does the source give for U43A A47G A118G here?
Answer: 0

Question: With U12C G28A U72A A118G as the variant, how does the self-cleavage read?
Answer: 0.04

Question: Which self-cleavage does the source give for U9C U57C A114U A116G here?
Answer: 0.01

Question: For U9C A47U U49C, which self-cleavage is on record?
Answer: 1.17

Question: Which self-cleavage does the source give for A5G G7A A66G C77U A114G here?
Answer: 1.53

Question: For U19C A36G A59G, which self-cleavage is on record?
Answer: 1.08

Question: Which self-cleavage does the source give for A13G A56G A78C U120C here?
Answer: 0.44

Question: Which self-cleavage does the source give for G14A U26A U38A A95C U108C here?
Answer: 0.01

Question: For U19C U38C C77U, which self-cleavage is on record?
Answer: 1.84

Question: With A18G C45G A52G A66G as the variant, how does the self-cleavage read?
Answer: 1.33

Question: For U43C A67G U102C, which self-cleavage is on record?
Answer: 2.15

Question: Which self-cleavage does the source give for A59U A91G A117G U130C here?
Answer: 0.55

Question: With U49C A78U A86G as the variant, how does the self-cleavage read?
Answer: 0.05

Question: With A11G A23U A27G A67G A95G as the variant, how does the self-cleavage read?
Answer: 0.91

Question: Which self-cleavage does the source give for G58U A125G U132G here?
Answer: 0.3

Question: With U19C A60G C113U as the variant, how does the self-cleavage read?
Answer: 0.07

Question: Which self-cleavage does the source give for U43C A67G U72A A91G A92G here?
Answer: 0.17

Question: For A18G A24U C25U U57A A118G, which self-cleavage is on record?
Answer: 0.73

Question: For A60G A111G A117U, which self-cleavage is on record?
Answer: 0

Question: With A11G A52G A89G A95G A114G as the variant, how does the self-cleavage read?
Answer: 0.68

Question: Which self-cleavage does the source give for A30G A47G A78C A90G here?
Answer: 0.18

Question: With U57C A98U G104A as the variant, how does the self-cleavage read?
Answer: 0.09

Question: With G15U A22G A96G as the variant, how does the self-cleavage read?
Answer: 0.86

Question: Which self-cleavage does the source give for U9C A24G A52G A118G here?
Answer: 0.53

Question: With A64G A69G U139C as the variant, how does the self-cleavage read?
Answer: 0.77

Question: Which self-cleavage does the source give for U9A A92U A111G here?
Answer: 0.05

Question: Which self-cleavage does the source give for A30G G31A U43C U72C here?
Answer: 0.14

Question: Which self-cleavage does the source give for A60G A63G A82U U122C here?
Answer: 0.17

Question: With A24G A90G U130C as the variant, how does the self-cleavage read?
Answer: 1

Question: Which self-cleavage does the source give for U9A U37C A126G here?
Answer: 0.47

Question: With A18G A27G A63G A110U A116U as the variant, how does the self-cleavage read?
Answer: 0.24

Question: For G20A A24U U37A, which self-cleavage is on record?
Answer: 0.72

Question: With A78G C112A A118G U122C as the variant, how does the self-cleavage read?
Answer: 0

Question: Which self-cleavage does the source give for A18U A23G A24U here?
Answer: 1.02

Question: With A86U A90G U103C as the variant, how does the self-cleavage read?
Answer: 0.97

Question: For A23G A55U A60U, which self-cleavage is on record?
Answer: 0.87

Question: For A114U A129G U131A, which self-cleavage is on record?
Answer: 0.03

Question: For A33G U39C A56G A114G, which self-cleavage is on record?
Answer: 0.14

Question: For G21U A64G A96G U124C, which self-cleavage is on record?
Answer: 0.57

Question: With U39C G41A A90G C113A as the variant, how does the self-cleavage read?
Answer: 0.01

Question: With A92G U127C U131C as the variant, how does the self-cleavage read?
Answer: 1.52

Question: With A5G U9C A52G G106A as the variant, how does the self-cleavage read?
Answer: 0.06

Question: With U38C A56G A110G U127A as the variant, how does the self-cleavage read?
Answer: 0.16

Question: Which self-cleavage does the source give for A22G A63G U102C A114U here?
Answer: 0.23

Question: Which self-cleavage does the source give for U2C A11G U38C U43A A82G here?
Answer: 0.98

Question: Which self-cleavage does the source give for A5G U43A A69U here?
Answer: 1.41

Question: Which self-cleavage does the source give for U43C A52G A90G here?
Answer: 1.34

Question: For A91G U102C U103C A116G, which self-cleavage is on record?
Answer: 0.06

Question: For U49A A55G A63G A111G, which self-cleavage is on record?
Answer: 0.16

Question: For U72A A82U U87C, which self-cleavage is on record?
Answer: 0.24

Question: Which self-cleavage does the source give for A11C U12G A22G A92G U108C U131G here?
Answer: 0

Question: With U19A A55G A69G A98G A117G U130C as the variant, how does the self-cleavage read?
Answer: 0.15

Question: Which self-cleavage does the source give for A23G G106A U120C here?
Answer: 0

Question: For A22U A63G U120A, which self-cleavage is on record?
Answer: 1.2

Question: With U43C A56G U87C U108C G136U as the variant, how does the self-cleavage read?
Answer: 0.01

Question: Which self-cleavage does the source give for U26C U103C U139A here?
Answer: 0.65

Question: With A52U A67G A111U as the variant, how does the self-cleavage read?
Answer: 0.14

Question: For U2A U39C A78G A86G G136U, which self-cleavage is on record?
Answer: 0.45

Question: With U9C A91U A110G U131C as the variant, how does the self-cleavage read?
Answer: 0.07

Question: Which self-cleavage does the source give for A22G A51U A116U here?
Answer: 0.7

Question: Which self-cleavage does the source give for U26C A27G U37C A63G U87C A126G here?
Answer: 2.43

Question: Which self-cleavage does the source give for A78G A114G A117G here?
Answer: 0.09

Question: With U26C A33G U39C A54G A69G U87G as the variant, how does the self-cleavage read?
Answer: 0.21

Question: For U3G U26C U127C, which self-cleavage is on record?
Answer: 0.6

Question: Which self-cleavage does the source give for A22G A92G G104A here?
Answer: 0.05
